Test results from PubChem BioAssay AID2147 (National Center for Advancing Translational Sciences (NCATS), 2009).
The campaign covered roughly 230,000 compounds. About 3,600 (1.6%) were called active. The shares of active, inactive and inconclusive entries below differ from those in the screen. The call rests on the fitted dose curve; in most records, active means well fitted inhibition curve with a large enough effect (not every such curve was filed as active); inconclusive means small, poorly fitted or top-dose-only effect, or another doubt; inactive means no such curve, though single readings can be large or run the other way. A potency beside an inconclusive call is a rough fit, not a confirmed value.

target: Lysine-specific demethylase 4E (Homo sapiens) (UniProt B2RXH2); assay: qHTS Assay for Inhibitors of Human Jumonji Domain Containing 2E (JMJD2E); details: JMJD2E catalytic domain, FDH-coupled NADH fluorescence (FDH is formaldehyde dehydrogenase); series mostly up to 57.1 µM; activity change, negative = inhibition: at the top concentration
Further: nearly all actives have a fitted effect of over 50% in size.
Potency means the concentration at half of the fitted maximal effect; tags describe the fitted curve by direction and shape.
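Wherever activity change, negative = inhibition is given: 0% = wells with enzyme and -100% = buffer wells without enzyme.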

Chain of UniProt B2RXH2 (B2RXH2 whole entry, looked up, the tested form may be a part): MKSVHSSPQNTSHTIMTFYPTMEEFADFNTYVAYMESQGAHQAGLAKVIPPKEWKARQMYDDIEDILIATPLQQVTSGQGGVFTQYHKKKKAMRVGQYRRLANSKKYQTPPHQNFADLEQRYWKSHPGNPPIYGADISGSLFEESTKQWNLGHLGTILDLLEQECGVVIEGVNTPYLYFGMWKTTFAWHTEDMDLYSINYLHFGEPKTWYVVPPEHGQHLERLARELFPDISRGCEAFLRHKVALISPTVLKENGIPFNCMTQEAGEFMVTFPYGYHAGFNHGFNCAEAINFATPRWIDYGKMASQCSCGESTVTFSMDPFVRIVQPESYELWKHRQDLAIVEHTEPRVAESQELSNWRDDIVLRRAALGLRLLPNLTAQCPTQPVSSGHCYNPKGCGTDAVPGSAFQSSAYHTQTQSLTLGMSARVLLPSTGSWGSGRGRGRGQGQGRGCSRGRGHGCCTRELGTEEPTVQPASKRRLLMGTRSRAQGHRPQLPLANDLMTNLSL

Row | SMILES | Potency | activity change, negative = inhibition
1 | CN1C=CC2=C(C#N)C(N)C(C#N)(C#N)C(c3ccccc3)C2C1 (stereo not given) | inconclusive: 35.5 µM [inhibitor, partial curve] | 
2 | N#C/C(=C/c1ccc(OCc2ccccc2)cc1)C(=O)NC1CCCCC1 | inconclusive: 35.5 µM [inhibitor, partial curve] | 
3 | CC1=C(C(=O)OCC2CCCO2)C(c2ccc(C)cc2)C2=C(CCCC2=O)N1 (stereo not given) | inconclusive: 28.2 µM [inhibitor, partial curve] | 
4 | COc1ccc(/C=N/NC(=O)c2cc(-c3ccc(C)cc3C)nc3ccccc23)cc1COC(C)=O | inconclusive: 25.1 µM [inhibitor, partial curve] | 
5 | COC(=O)Cc1c(C)c2c(O)cc(C)cc2oc1=O | inconclusive: 35.5 µM [inhibitor, single point] | 
6 | Cc1ccc(C)n1-c1ccc(C(=O)O)cc1 | active: 14.1 µM | 
7 | CC(C)(C)C1CCC(=NNc2ccc(S(N)(=O)=O)cc2[N+](=O)[O-])CC1 (stereo not given) |  | inactive: -4.27%
8 | COc1ccc(-c2cn[nH]c2-c2ccc(OCc3ccccc3)cc2O)cc1 |  | inactive: -22.4%
9 | O=C(O)Cc1nc2nc3c(c(=O)n2[nH]1)CCCC3 |  | inactive: 6.54%
10 | CCCC(=O)NCc1cc(-c2nn(C)c(=O)c3ccccc23)ccc1OC | inconclusive: 31.6 µM [inhibitor, partial curve] | 
11 | CCOc1ccc(NS(=O)(=O)c2ccc3[nH]cc(C(=O)N(CC)CC)c(=O)c3c2)cc1 | inconclusive: 35.5 µM [inhibitor, partial curve] | 
12 | CCN(CC)CCN1C(=O)C(=O)/C(=C(/O)c2ccc3c(c2)CC(C)O3)C1c1ccc(OC)cc1 (stereo not given) |  | inactive: -1.95%
13 | CCCCNC(=O)Nc1ccccc1CC |  | inactive: 4.21%
14 | CCSc1nnc(NC(=O)CSc2nc3c(cc2C#N)CCCC3)s1 | inconclusive: 7.94 µM [inhibitor, full curve] | 
15 | Nc1nnc(Cc2cccc(Br)c2)s1 |  | inactive: -0.7%
16 | c1coc(-c2nc3nc4ccccc4nc3n2CC2CCCO2)c1 (stereo not given) | inconclusive: 8.91 µM [inhibitor, partial curve] | 
17 | CCOC(=O)c1nn(-c2cccc(C)c2)c2nc(-c3ccccc3)c(C#N)c(=O)n12 | inconclusive: 31.6 µM [inhibitor, partial curve] | 
18 | CCCNC(=O)C1CCN(c2cc(-c3ccccc3)nc3ncnn23)CC1 | inconclusive: 28.2 µM [inhibitor, single point] | 
19 | CCN(CC)S(=O)(=O)c1cccc(C(=O)NN2Cc3ccccc3C2=N)c1 | inconclusive: 39.8 µM [inhibitor, single point] | 
20 | CCOC(=O)C1=C(C)S/C(=C\N(C)C)C1=O | inconclusive: 28.2 µM [inhibitor, partial curve] | 
21 | CCOC(=O)NC(=O)/C(C#N)=C(/C)N(C)C |  | inactive: -2.76%
22 | COc1ccccc1C(CCN(Cc1ccccc1)C(C)=O)c1ccco1 (stereo not given) |  | inactive: 3.61%
23 | Brc1ccc(C2CC(c3ccccc3)=Nc3ccccc3N2)cc1 (stereo not given) | inconclusive: 31.6 µM [inhibitor, single point] | 
24 | Cc1cc(C)nc(/N=C(\N)N2CCCCC2)n1 | inconclusive: 31.6 µM [inhibitor, partial curve] | 
25 | CCCOc1ccc(-c2cn3ccccc3n2)cc1 | inconclusive: 31.6 µM [inhibitor, partial curve] | 

Row | SMILES | Potency | activity change, negative = inhibition
26 | CC(=O)Nc1ccc(Br)c(Cl)c1 |  | inactive: -2.55%
27 | CC1(C)CC(=O)C(C=NCCN2CCN(C(=O)NC34CC5CC(CC(C5)C3)C4)CC2)=C(O)C1 |  | inactive: 0.487%
28 | O=C(Nc1nnc(-c2ccccc2)s1)c1ccc(F)cc1 | inconclusive: 3.55 µM [inhibitor, single point] | 
29 | CC1Cc2ccccc2N1S(=O)(=O)c1cccc(C(=O)N2CCN(c3ncccn3)CC2)c1 (stereo not given) |  | inactive: -17.2%
30 | O=C(c1cc2ncc(CCCl)cn2n1)N1CCCCCC1 | inconclusive: 35.5 µM [inhibitor, single point] | 
31 | O=C1NC(c2ccccc2)(C(F)(F)F)SC2=CCCCCN12 (stereo not given) | inconclusive: 39.8 µM [inhibitor, single point] | 
32 | Cc1cccc(CNc2ncnc3ccc(-c4cccc(C#N)c4)cc23)c1 | inconclusive: 28.2 µM [inhibitor, partial curve] | 
33 | CCCN(CCC)C(=O)c1cc(-c2ccc3c(c2)OCO3)nc2ccccc12 | inconclusive: 25.1 µM [inhibitor, partial curve] | 
34 | COC(=O)C1Cc2ccccc2CN1C(=O)CCl (stereo not given) |  | inactive: -3.49%
35 | O=C(Nc1ccc(N2CCN(c3ccc(O)cc3)CC2)cc1)Oc1ccccc1 | inconclusive: 3.98 µM [inhibitor, full curve, poor fit] | 
36 | Cc1cc(N2CCN(c3ccccc3F)CC2)nc2cc(O)ccc12 | inconclusive: 28.2 µM [inhibitor, partial curve] | 
37 | CCOC(=O)c1c(C)nc2c(c(SC)nn2-c2ccccc2)c1N | inconclusive: 35.5 µM [inhibitor, partial curve] | 
38 | Cc1onc(-c2ccccc2Cl)c1C(=O)N1CCN(c2nc3ccccc3s2)CC1 |  | inactive: -0.317%
39 | FCCCOc1ccc(-c2ccnc3ncnn23)cc1 | inconclusive: 31.6 µM [inhibitor, partial curve] | 
40 | CCc1c(C)[nH]c(=S)c(C#N)c1C | active: 20 µM | 
41 | CC(=O)NCCNc1nc(-c2ccccc2Cl)nc2ccccc12 |  | inactive: -25.4%
42 | Cc1cc(C)nc(SCC(=O)Nc2nonc2N)n1 |  | inactive: -8.01%
43 | Cn1c(N)c(C(=O)CSc2ccccn2)c(=O)n(C)c1=O |  | inactive: 2.24%
44 | CCn1c(C)nc2cc(C(=O)N/N=C/c3ccc(OC)cc3)ccc21 |  | inactive: -1.05%
45 | CCC1=C2CC[C@H]3C(=O)N(CC)C(=O)[C@H]3[C@H]2[C@@]2(Cc3ccccc3)C(=O)N(CC3CC3)C(=O)N2C1=O |  | inactive: -5.98%
46 | CC(NC(=O)OC(C)(C)C)C(=O)Oc1ccc2ccc(=O)oc2c1 (stereo not given) | inconclusive: 25.1 µM [inhibitor, partial curve] | 
47 | O=C(NNC(=O)c1cc2cc3ccccc3nc2s1)c1ccc(F)cc1 |  | inactive: -23.4%
48 | O=S(=O)(c1ccc(F)cc1)N1CN(Cc2ccco2)c2nc3ccccc3nc21 | inconclusive: 25.1 µM [inhibitor, partial curve] | 
49 | Cc1cc(-c2n[nH]c(=S)n2/N=C/c2cc([N+](=O)[O-])ccc2Cl)n[nH]1 |  | inactive: -10.2%
50 | Cc1ccc(-c2nn(-c3ccccc3)cc2/C=C/C(=O)Nc2nccs2)cc1 | inconclusive: 31.6 µM [inhibitor, partial curve] | 

Row | SMILES | Potency | activity change, negative = inhibition
51 | Cc1ccc(O)c(C(=O)c2coc(=N)c(C(=O)NC(C)C)c2)c1 |  | inactive: 7.22%
52 | O=C(Nc1cccc(S(=O)(=O)NC2=NCCCCC2)c1)c1cc(-c2ccc(Cl)cc2)nc2ccccc12 | inconclusive: 3.16 µM [inhibitor, partial curve] | 
53 | CCCCN(C(=O)c1ccc2c(c1)OCO2)c1ccccc1 |  | inactive: 1.31%
54 | c1ccc(CCn2cnc3ccccc32)cc1 |  | inactive: 3.83%
55 | Cc1cccc(CNC(=O)CCc2nnc(C3CCCCC3)o2)c1 |  | inactive: -5.08%
56 | CN1c2ccccc2C(C)(C)C12CCCC(=O)N2 (stereo not given) | inconclusive: 35.5 µM [inhibitor, single point] | 
57 | CCSc1nc2nc(C)cc(C)n2n1 | inconclusive: 39.8 µM [inhibitor, single point] | 
58 | Cn1nc(/C=C/c2ccccc2)ccc1=O | inconclusive: 28.2 µM [inhibitor, partial curve] | 
59 | Cc1cc(=O)oc2cc(NC(=O)CCC(=O)O)ccc12 | inconclusive: 25.1 µM [inhibitor, partial curve] | 
60 | COc1cc2cc(C(c3nnnn3C3CCCC3)N3CCCCCC3)c(=O)[nH]c2cc1OC (stereo not given) | inconclusive: 28.2 µM [inhibitor, partial curve] | 
61 | CCOC(=O)C(=CNc1cc(Cl)c(-c2ccco2)c(Cl)c1)C(=O)OCC | inconclusive: 31.6 µM [inhibitor, single point] | 
62 | CCCCn1nc2cc(C(=O)NC[C@@H]3CCCO3)ccc2c1OCC | inconclusive: 28.2 µM [inhibitor, partial curve] | 
63 | NC(=O)c1c(-c2cccs2)csc1N | inconclusive: 25.1 µM [inhibitor, single point] | 
64 | c1ccc2c(c1)SCc1nnc(-c3ccncc3)n1-2 |  | inactive: -1.34%
65 | COC(=O)c1ccc(Sc2ccc(Cl)cc2)c(N)c1 | inconclusive: 31.6 µM [inhibitor, partial curve] | 
66 | Brc1ccc(-c2nnc(-c3ccco3)o2)cc1 | inconclusive: 22.4 µM [inhibitor, single point] | 
67 | CCN(C(=O)COC(=O)c1[nH]c(=O)[nH]c(=O)c1N)c1ccccc1 | inconclusive: 25.1 µM [inhibitor, single point] | 
68 | CCCC/C=C1\CCc2c([nH]c3ccccc23)C1=O | inconclusive: 28.2 µM [inhibitor, single point] | 
69 | NS(=O)(=O)c1cccc(NS(=O)(=O)c2ccc(/C=C/C(=O)OCC(=O)c3ccc(Br)cc3)cc2)c1 |  | inactive: 0.0013%
70 | CCOC(=O)CNc1c(-c2ccc(OC)cc2)nc2ccc(Cl)cn12 | inconclusive: 28.2 µM [inhibitor, single point] | 
71 | Cc1ccc(C2CC2C(=O)NNC(=S)Nc2cccc(C)c2)cc1 (stereo not given) |  | inactive: -2.65%
72 | O=C(Nc1ccc(S(=O)(=O)Nc2ccccn2)cc1)C(F)(F)F | inconclusive: 31.6 µM [inhibitor, partial curve] | 
73 | CC(C)Cn1c(/C=C/c2ccco2)nc2ccccc21 | inconclusive: 31.6 µM [inhibitor, partial curve] | 
74 | Cc1ccn2c(CN3CCOCC3)c(-c3ccccc3)nc2c1 | inconclusive: 28.2 µM [inhibitor, partial curve] | 
75 | O=C(Nc1ccccn1)c1c(O)c2cccc3c2n(c1=O)CCC3 | inconclusive: 7.08 µM [inhibitor, single point] | 
